Test results as given in the supplement of paper PMC9446081.
In all, about 39,000 compounds went through this assay and about 220 (0.56%) showed activity. This is one part of the list.

Each molecule was assayed on Escherichia coli K-12 BW25113 (assay: relative growth (OD600 normalised to plate interquartile mean) (fraction); higher = less growth inhibition, active = 0.2 or less). Conditions: 50 µM; LB; incubation time: overnight (16-24 h).
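Further: static incubation at 37 °C against the wild-type strain, values averaged over two biological replicates.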

| SMILES | relative growth |
| --- | --- |
| COc1cccc(S(=O)(=O)N(C)C[C@H]2Oc3ncc(C#CCC(C)C)cc3C(=O)N([C@@H](C)CO)C[C@H]2C)c1 | inactive: 1.02 |
| O=C(O)C1=C[C@@H](O)[C@@H](O)[C@H](O)C1 | inactive: 0.996 |
| C[C@H](O)C(=O)Nc1c(I)c(C(=O)NC(CO)CO)c(I)c(C(=O)NC(CO)CO)c1I | inactive: 0.998 |
| C[C@H](CO)N1C[C@H](C)[C@@H](CN(C)C(=O)Nc2ccc(C(F)(F)F)cc2)Oc2ccc(NC(=O)Nc3ccc(F)cc3)cc2C1=O | inactive: 1 |
| C[C@H]1CN([C@@H](C)CO)C(=O)c2c(c3ccccc3n2C)-c2ccccc2CO[C@H]1CN(C)C(=O)Nc1cccc(Cl)c1Cl | inactive: 1.01 |
| C[C@H]1CCCCO[C@H](CN(C)C(=O)Cc2ccccc2)[C@@H](C)CN([C@@H](C)CO)C(=O)c2cc(NC(=O)Nc3ccccc3)ccc2O1 | inactive: 1.02 |
| O=C(N[C@H]1CCS(=O)(=O)C1)N1CCCCC1 | inactive: 1 |
| CCCc1nn(C)c2c(=O)[nH]c(-c3cc(S(=O)(=O)N4CCN(C)CC4)ccc3OCC)nc12.O=C(O)CC(O)(CC(=O)O)C(=O)O | inactive: 0.963 |
| C[C@@H]1CCCCO[C@@H](CN(C)Cc2ccc(C(F)(F)F)cc2)[C@H](C)CN([C@@H](C)CO)C(=O)c2cc(NC(=O)C3CCCCC3)ccc2O1 | inactive: 1.01 |
| C[C@@H]1CN([C@H](C)CO)C(=O)c2cc(NC(=O)Nc3ccc4c(c3)OCO4)ccc2O[C@@H](C)CCCCO[C@@H]1CN(C)S(=O)(=O)c1ccccc1 | inactive: 1.05 |
| C[C@H]1CN([C@@H](C)CO)C(=O)c2cccc(NC(=O)Nc3cccc4ccccc34)c2O[C@H]1CN(C)C(=O)Nc1cccc2ccccc12 | inactive: 1.04 |
| Cc1noc(C)c1NC(=O)N(C)C[C@@H]1Oc2ccc(NC(=O)Nc3ccc(C(F)(F)F)cc3)cc2C(=O)N([C@@H](C)CO)C[C@H]1C | inactive: 0.959 |
| Cc1ccc2oc3c(c(=O)c2c1)[C@@]1(C(=O)N(Cc2ccccc2F)c2ccccc21)N(Cc1ccco1)C3=O | inactive: 1.06 |
| CC(C)(C)S(=O)N1Cc2cc(C(=O)Nc3ccc(-c4ccccc4)cc3)nc(-c3cccc(C#CCC4CCCC4)c3)c2[C@@H]1CCO (stereo not given in full) | inactive: 1.03 |
| C[C@H]1CN([C@@H](C)CO)C(=O)c2cccc(NC(=O)c3ccncc3)c2O[C@@H]1CN(C)Cc1ccc(-c2ccccc2)cc1 | inactive: 1.03 |
| COc1ccc(S(=O)(=O)N[C@H]2C=C[C@@H](CC(=O)N3CCN(c4ccccc4)CC3)O[C@H]2CO)cc1 | inactive: 1 |
| CN(CC(=O)NCc1ccccn1)S(=O)(=O)c1cc(Br)cnc1N | inactive: 1.02 |
| COCC#Cc1cnc2c(c1)C(=O)N([C@H](C)CO)C[C@@H](C)[C@H](CN(C)C(C)=O)O2 | inactive: 0.998 |
| CC[C@@H](C)CCCC(=O)N[C@@H](CCN)C(=O)N[C@H](C(=O)N[C@@H](CCN)C(=O)N[C@H]1CCNC(=O)[C@H]([C@@H](C)O)NC(=O)[C@H](CCN)NC(=O)[C@H](CCN)NC(=O)[C@H](CC(C)C)NC(=O)[C@@H](CC(C)C)NC(=O)[C@H](CCN)NC1=O)[C@@H](C)O | inactive: 0.262 |
| COc1ccc(NC(=O)N(C)C[C@@H]2OCCCC[C@H](C)Oc3ccc(NS(=O)(=O)c4c(C)noc4C)cc3C(=O)N([C@@H](C)CO)C[C@H]2C)cc1 | inactive: 1.03 |

| SMILES | relative growth |
| --- | --- |
| CN(C)/C=N/[C@@H]1N=C(C2CC2)N(C)C(=O)N1 | inactive: 0.989 |
| C[C@@H]1CN([C@H](C)CO)C(=O)c2cc(-c3ccc(C(=O)N(C)C)cc3)cnc2O[C@@H]1CN(C)C(=O)CN(C)C | inactive: 0.999 |
| CCCC#Cc1cnc2c(c1)C(=O)N([C@H](C)CO)C[C@@H](C)[C@H](CN(C)S(=O)(=O)c1cn(C)cn1)O2 | inactive: 0.998 |
| C/C=C/c1cnc2c(c1)C(=O)N([C@H](C)CO)C[C@@H](C)[C@@H](CN(C)S(=O)(=O)c1ccc(OC)cc1)O2 | inactive: 1.01 |
| COc1ccc(S(=O)(=O)N[C@@H]2CC[C@@H](CCNC(=O)CN3CCOCC3)O[C@@H]2CO)cc1 | inactive: 0.973 |
| CNC(=O)Cn1cc(Br)cn1 | inactive: 1.03 |
| COc1ccc(S(=O)(=O)Nc2ccc3c(c2)C(=O)N([C@@H](C)CO)C[C@H](C)[C@@H](CN(C)Cc2ccc(Cl)c(Cl)c2)OCCCC[C@H](C)O3)cc1 | inactive: 0.991 |
| C=C1CCC=C(C)CCC2C1CC2(C)C.O (single isomer, unassigned; (-)) [(-)E-CARYOPHYLLENE hydrate] | inactive: 1.06 |
| C[C@H](CO)N1C[C@H](C)[C@H](CN(C)S(=O)(=O)c2ccc(F)cc2)Oc2ncc(-c3ccncc3)cc2C1=O | inactive: 1.02 |
| C[C@H](CO)N1C[C@H](C)[C@H](CN(C)C(=O)c2ccccn2)Oc2cc(C#Cc3ccc(F)cc3)ccc2S1(=O)=O | inactive: 1.03 |
| C[C@@H]1CCCCO[C@@H](CN(C)S(=O)(=O)c2cccs2)[C@@H](C)CN([C@H](C)CO)C(=O)c2cc(NC(=O)Nc3cccc4ccccc34)ccc2O1 | inactive: 1.01 |
| C[N+](C)(C)CCCCCC[N+](C)(C)C.[Br-].[Br-] | inactive: 0.862 |
| CO[C@H]1CN(C)C(=O)c2cc(NC(C)=O)ccc2OC[C@H](C)N(S(=O)(=O)c2cn(C)cn2)C[C@@H]1C | inactive: 0.993 |
| C[C@H]1CN([C@@H](C)CO)C(=O)c2cc(NC(=O)CCCN(C)C)ccc2O[C@H]1CN(C)S(=O)(=O)c1ccccc1 | inactive: 1 |
| O=C(C[C@H]1CC=CC[C@H](NC(=O)OCC2c3ccccc3-c3ccccc32)C(=O)OCCNC1=O)NCCO | inactive: 1.03 |
| CC(C)NC(=O)Nc1ccc2c(c1)C(=O)N([C@H](C)CO)C[C@@H](C)[C@H](CN(C)Cc1ccc(Cl)c(Cl)c1)OCCCC[C@@H](C)O2 | inactive: 1.02 |
| CN1CCN(C(=O)C[C@@H]2CC[C@H]3[C@@H](COC[C@@H](O)CN3Cc3ccc4c(c3)OCO4)O2)CC1 | inactive: 0.988 |
| O=C(NCc1nc2ccccc2[nH]1)C1=C[C@@H](c2ccc(Br)cc2)C[C@@H](OCc2ccc(CO)cc2)O1 | inactive: 0.992 |
| CC(C)NC(=O)N(C)C[C@H]1Oc2ccc(NS(=O)(=O)c3cccs3)cc2CC(=O)N([C@@H](C)CO)C[C@H]1C | inactive: 1.03 |
| C[C@H](CO)N1C[C@H](C)[C@H](CN(C)C(=O)c2ccc3c(c2)OCO3)Oc2cc(C#Cc3ccccc3F)ccc2S1(=O)=O | inactive: 1.02 |

| SMILES | relative growth |
| --- | --- |
| Cn1c(=O)[nH]c(=O)c2c1nc(N1CCN(CC(N)=O)CC1)n2C/C=C/c1ccccc1 | inactive: 0.988 |
| CCOC(=O)C1=C(C)NC(c2ccccc2)=C(C(=O)OCc2ccc([N+](=O)[O-])cc2)[C@@H]1C#Cc1ccccc1 | inactive: 1.04 |
| COc1ccc(NC(=O)Nc2ccc3c(c2)C(=O)N([C@@H](C)CO)C[C@H](C)[C@@H](CN(C)Cc2ccc(C(F)(F)F)cc2)OCCCC[C@@H](C)O3)cc1 | inactive: 0.987 |
| C[C@H]1CN([C@@H](C)CO)C(=O)c2cc(C#Cc3cccnc3)cnc2O[C@H]1CN(C)S(C)(=O)=O | inactive: 1.04 |
| C[C@H](CO)N1C[C@H](C)[C@@H](CN(C)S(=O)(=O)c2ccccc2)Oc2ccc(NC(=O)CCC(F)(F)F)cc2CC1=O | inactive: 1.02 |
| CN1C(=O)c2cc(NS(=O)(=O)c3cccc(F)c3)ccc2OC[C@H]2O[C@H](CC(=O)NCCN3CCCCC3)CC[C@H]21 | inactive: 0.983 |
| O=C(C[C@@H]1C[C@@H]2c3cc(NC(=O)C4CCOCC4)ccc3O[C@@H]2[C@@H](CO)O1)NCc1ccc2c(c1)OCO2 | inactive: 1.02 |
| COc1cccc(S(=O)(=O)N(C)C[C@@H]2Oc3cc(C4=CCCC4)ccc3S(=O)(=O)N([C@@H](C)CO)C[C@@H]2C)c1 | inactive: 1.03 |
| C[C@H]1CN([C@@H](C)CO)C(=O)CCCn2cc(nn2)CO[C@@H]1CN(C)C(=O)Nc1ccc2c(c1)OCO2 | inactive: 0.986 |
| C[C@@H]1CN([C@H](C)CO)C(=O)c2cccc(NC(=O)Nc3ccc(C(F)(F)F)cc3)c2O[C@@H]1CN(C)Cc1ccncc1 | inactive: 0.972 |
| COc1ccc(S(=O)(=O)Nc2ccc3c(c2)C(=O)N([C@@H](C)CO)C[C@@H](C)[C@H](CN(C)CC2CC2)O3)cc1 | inactive: 1.02 |
| C[C@H](CO)N1C[C@H](C)[C@@H](CN(C)C(=O)Nc2ccccc2)Oc2c(NC(=O)CCCCCC(=O)Nc3ccccc3N)cccc2C1=O | inactive: 1 |
| COc1ccccc1CNC(=O)C[C@H]1C[C@H]2c3cc(NC(=O)Nc4ccc(C(F)(F)F)cc4)ccc3O[C@H]2[C@H](CO)O1 | inactive: 0.981 |
| NC(=S)CN1CCCC1=O | inactive: 1.03 |
| C[C@H]1CN([C@@H](C)CO)C(=O)CCCn2nncc2CO[C@@H]1CN(C)C(=O)Nc1ccc(N2CCCCC2)cc1 | inactive: 1 |
| O=C(N[C@@H]1CC[C@@H](CCNS(=O)(=O)c2ccccc2)O[C@@H]1CO)c1cnccn1 | inactive: 1.01 |
| C[C@@H]1CCCCO[C@@H](CN(C)C(=O)Nc2ccc3c(c2)OCO3)[C@@H](C)CN([C@@H](C)CO)C(=O)c2cc(NC(=O)NC3CCCCC3)ccc2O1 | inactive: 1 |
| C[C@@H]1CN([C@H](C)CO)C(=O)c2cccc(NC(=O)CCCCCC(=O)Nc3ccccc3N)c2O[C@H]1CN(C)Cc1ccc(Oc2ccccc2)cc1 | inactive: 1.01 |
| COCC(=O)N1CC[C@@H](O)[C@@H]1Cc1cnn(C)c1 | inactive: 0.953 |
| COc1ccc(S(=O)(=O)N(C)C[C@@H]2OCCCC[C@@H](C)Oc3ccc(NC(=O)CCC(F)(F)F)cc3C(=O)N([C@@H](C)CO)C[C@H]2C)cc1 | inactive: 1.01 |
